Screen size: about 3,200 compounds; about 75 (2%) showed an effect of 50% or more. This is one part of the list.
system: T1, S. aureus MSSA476; design: species or system S. aureus MSSA476 (TSB) or V. cholerae SAD30 (LB); 384-well bacterial growth screen at 25 uM, OD600 relative to DMSO control; settings: relative growth, OD600, TSB; 25 µM; inhibitor
T1 construct: MSSA476

Row | Compound | % of control remaining
1 | COc1ccc(-n2c(C)cc(C=C(C#N)C(=O)N(C)OC)c2C)cc1 [9-N16, 2-cyano-N-methoxy-3-[1-(4-methoxyphenyl)-2,5-dimethyl-1H-pyrrol-3-yl]-N-methylprop-2-enamide] | 76.1049%
2 | COc1ccc(N(C(=O)CCl)C2C=CS(=O)(=O)C2)cc1 (centres unmarked) [5-H14, 2-chloro-N-(1,1-dioxo-2,3-dihydro-1lambda6-thiophen-3-yl)-N-(4-methoxyphenyl)acetamide] | 89.6175%
3 | Cc1ccccc1NC(=O)C(C#N)=Cc1cccnc1 [8-D10, 2-cyano-N-(2-methylphenyl)-3-(pyridin-3-yl)prop-2-enamide] | 102.573%
4 | O=C1C=CC(=O)N1c1ccc(SC(F)F)cc1 [10-A18, 1-{4-[(difluoromethyl)sulfanyl]phenyl}-2,5-dihydro-1H-pyrrole-2,5-dione] | 29.6875%
5 | CC(Cl)C(=O)NC(C)c1nc(-c2cccnc2)cs1 (centres unmarked) [6-P07, 2-chloro-N-{1-[4-(pyridin-3-yl)-1,3-thiazol-2-yl]ethyl}propanamide] | 82.9756%
6 | CCc1nc2cc(CNC(=O)C(C)Cl)ccc2n1C1CC1 (centres unmarked) [6-N09, 2-chloro-N-[(1-cyclopropyl-2-ethyl-1H-1,3-benzodiazol-5-yl)methyl]propanamide] | 99.7073%
7 | O=C(CCl)N1N=C(c2cccs2)CC1c1ccccc1O (centres unmarked) [4-K20, 2-chloro-1-[5-(2-hydroxyphenyl)-3-(thiophen-2-yl)-4,5-dihydro-1H-pyrazol-1-yl]ethan-1-one] | 3.049%
8 | N#CC(=Cc1cc(Cl)ccc1O)C(=O)Nc1cccc2ccccc12 [9-P17, 3-(5-chloro-2-hydroxyphenyl)-2-cyano-N-(naphthalen-1-yl)prop-2-enamide] | 74.0075%
9 | Cc1cc(C=C(C#N)C(=O)Nc2ccccc2)c(C)n1CC(C)C [9-A07, 2-cyano-3-[2,5-dimethyl-1-(2-methylpropyl)-1H-pyrrol-3-yl]-N-phenylprop-2-enamide] | 85.3933%
10 | N#CC(=Cc1ccc2c(c1)OCCO2)C(=O)Nc1ccc(F)cc1 [9-K20, 2-cyano-3-(2,3-dihydro-1,4-benzodioxin-6-yl)-N-(4-fluorophenyl)prop-2-enamide] | 85.0936%
11 | C=CC(=O)NCC1(OC)CCC(C)CC1 (centres unmarked) [1-P08, N-[(1-methoxy-4-methylcyclohexyl)methyl]prop-2-enamide] | 89.3187%
12 | C=CC(=O)N1CCC(S(=O)(=O)NC(C)C)C1 (centres unmarked) [1-D19, 1-(prop-2-enoyl)-N-(propan-2-yl)pyrrolidine-3-sulfonamide] | 109.714%
13 | N#CC(=Cc1ccccc1)C(=O)NC1CCCCCCC1 [8-G17, 2-cyano-N-cyclooctyl-3-phenylprop-2-enamide] | 98.9212%
14 | C=CC(=O)NCc1ccnn1C [1-H20, N-[(1-methyl-1H-pyrazol-5-yl)methyl]prop-2-enamide] | 132.22%
15 | O=C(CCl)NCCOc1ccc(F)cc1 [6-A08, 2-chloro-N-[2-(4-fluorophenoxy)ethyl]acetamide] | 80.5854%
16 | CC(Cl)C(=O)Nc1sccc1C#N (centres unmarked) [5-E21, 2-chloro-N-(3-cyanothiophen-2-yl)propanamide] | 103.097%
17 | O=C(O)c1coc(C(=O)CCl)c1 [10-B07, 5-(2-chloroacetyl)furan-3-carboxylic acid] | 79.6875%
18 | CCc1cc(SC#N)cc(CC)c1NC(=O)CCl [4-J12, 2-chloro-N-[4-(cyanosulfanyl)-2,6-diethylphenyl]acetamide] | 112.053%
19 | C=CC(=O)N(C)CC(=O)Nc1ccc(N2CCOCC2=O)c(C)c1 [3-J07, N-methyl-N-({[3-methyl-4-(3-oxomorpholin-4-yl)phenyl]carbamoyl}methyl)prop-2-enamide] | 101.35%
20 | Cc1csc(C(C#N)C(=O)CCl)n1 (centres unmarked) [10-D12, 4-chloro-2-(4-methyl-1,3-thiazol-2-yl)-3-oxobutanenitrile] | 92.5%
21 | Cc1ccc(Cc2cnc(NC(=O)CCl)s2)cc1 [5-K03, 2-chloro-N-{5-[(4-methylphenyl)methyl]-1,3-thiazol-2-yl}acetamide] | 107.832%
22 | CN(CC1CCCCC1)C(=O)C(C)(C)NC(=O)CCl [6-A19, 2-(2-chloroacetamido)-N-(cyclohexylmethyl)-N,2-dimethylpropanamide] | 86.3902%
23 | CC1Cc2cc(C(=O)CCl)ccc2N1S(C)(=O)=O (centres unmarked) [10-A04, 2-chloro-1-(1-methanesulfonyl-2-methyl-2,3-dihydro-1H-indol-5-yl)ethan-1-one] | 1.875%
24 | Cc1nn(-c2ccccc2)c(C)c1CN(C)C(=O)CCl [7-B03, 2-chloro-N-[(3,5-dimethyl-1-phenyl-1H-pyrazol-4-yl)methyl]-N-methylacetamide] | 93.5636%
25 | O=C(CCl)c1ccc(Oc2ccccc2)cc1 [10-G20, 2-chloro-1-(4-phenoxyphenyl)ethan-1-one] | -0.625%
26 | CC(C)NC(=O)C(C#N)=Cc1c(Cl)cccc1Cl [9-E13, 2-cyano-3-(2,6-dichlorophenyl)-N-(propan-2-yl)prop-2-enamide] | 139.326%
27 | CN(C)C(CNC(=O)CCl)c1ccccc1.Cl (centres unmarked) [4-B21, 2-chloro-N-[2-(dimethylamino)-2-phenylethyl]acetamide hydrochloride] | 102.525%
28 | N#CC(=Cc1ccc(F)cc1)C(=O)Nc1ccc(C(=O)O)cc1 [8-L07, 4-[2-cyano-3-(4-fluorophenyl)prop-2-enamido]benzoic acid] | 95.9336%
29 | COc1cc(C=C(C#N)C(=O)Nc2ccc(C)cc2)cc(Cl)c1O [8-P05, 3-(3-chloro-4-hydroxy-5-methoxyphenyl)-2-cyano-N-(4-methylphenyl)prop-2-enamide] | 89.2946%

From article PMC11995724, “Antibiotic target discovery by integrated phenotypic and activity-based profiling of electrophilic fragments” (Cell chemical biology, 2025)
